Measured values published in patent US9833497B2, “Human originated EGF domain proteins and use of the same” (CHENGDU SOURCEBIO LIMITED-LIABILITY COMPANY, priority 2013, dated 2017).

Tests used:
Assay type in all cases: cell-based
E. coli BL21 = assay: MIC against Gram-negative bacteria: E. coli BL21; conditions: 5×10^5 CFU/mL; for MIC against E. coli BL21 / MIC E. coli BL21: 96-well plate, 37° C., 10 h
Method: (§1) 1. Gram-negative bacteria, such as E. coli BL21, Pseudomonas aeruginosa, Klebsiella pneumonia, Enterobacter cloacae, Aeromonas hydrophila, Citrobacter diversus, Moraxella catarrhalis, Proteus mirabilis, Proteus vulgaris, Serratia marcescens, etc were streaked on solid LB medium and cultured respectively. Then, typical clones were picked, inoculated into common liquid LB medium respectively, and cultured at 37° C. with shaking at 185 rpm until the McFarland specific turbidity was 0.5. The bacterial culture of each of Gram-negative bacteria was centrifuged at 4000×g for 3 min, the supernatant was discarded, and the thalli were resuspended with fresh LB medium.
(§2) 2. The above-mentioned bacterial suspensions were diluted and inoculated into 96-well plates with the final concentration of the bacterial suspension being 5×10^5 CFU/mL per well.
(§3) 3. Each of the purified human-originated EGF domain proteins (PRT1 to PRT1498 in Table 1) was added to each of the above wells and subjected to two-fold serial dilution in concentration. Three parallel wells were set up for each concentration in the gradient.
(§4) 4. The above-mentioned 96-well plates were placed and cultured at 37° C. in shaking incubator shaking at 175 rpm. […] The minimal inhibitory concentration MIC is defined as the lowest concentration of the recombinant protein at which there is no growth of the bacteria.

Proteus vulgaris = assay: MIC against Gram-negative bacteria: Proteus vulgaris; conditions: 5×10^5 CFU/mL; for MIC against P. vulgaris / MIC P. vulgaris: 96-well plate, 37° C., 10 h
Method: as §1, §2, §3, §4

Enterobacter cloacae = assay: MIC against Gram-negative bacteria: Enterobacter cloacae; conditions: 5×10^5 CFU/mL; for MIC against E. cloacae / MIC E. cloacae: 96-well plate, 37° C., 10 h
Method: as §1, §2, §3, §4

E. coli DH5α = assay: Antibacterial activity: MIC and growth curve against E. coli DH5α in 96-well plate; conditions: minimal inhibitory concentration against E. coli DH5α, 5×10^5 CFU/mL, 37° C., judged after 8 h
Method: 1. E. coli DH5α was exemplified. E. coli DH5α was streaked and cultured on LB solid medium. Then, a typical clone was picked and inoculated into common LB liquid medium, cultured at 37° C. with shaking at 185 rpm until the logarithmic growth phase was reached (OD600 of about 0.5). The bacterial culture was centrifuged at 4000×g for 3 min, the supernatant was discarded, and the thalli were resuspended with fresh LB medium.
2. The above-mentioned bacterial suspension was diluted and inoculated into a 96-well plate with the total volume of 100 μL per well and a bacterial count of 5×10^5 CFU/mL.
3. The recombinant protein hF VII-EGF1 was added to the above-mentioned wells with the final protein concentration in the well of the highest protein concentration being 50 μg/mL. Basing on this final concentration, a two-fold serial dilution was performed till a protein concentration gradient consisting of 50, 25, and 12.5 μg/mL was set up. Three parallel wells were set up for each concentration in the gradient.
as §4, with “plate was” for “plates were”, “rpm. Samples were taken every 30 min, the absorbance values were determined at 600 nm wavelength under a ultra violet spectrophotometer, and an inhibition curve was plotted.” for “rpm.”
According to the experimental procedures in Example 14, the minimal inhibitory concentrations (MIC, μg/mL) of the other human-originated EGF domain proteins (PRT2 to PRT1498 in Table 1) for E. coli DH5α were determined.

Pseudomonas aeruginosa = assay: MIC against Gram-negative bacteria: Pseudomonas aeruginosa; conditions: 5×10^5 CFU/mL; for MIC against P. aeruginosa / MIC P. aeruginosa: 96-well plate, 37° C., 10 h
Method: as §1, §2, §3, §4

Klebsiella pneumonia = assay: MIC against Gram-negative bacteria: Klebsiella pneumonia; conditions: 5×10^5 CFU/mL; for MIC against K. pneumonia / MIC K. pneumonia: 96-well plate, 37° C., 10 h
Method: as §1, §2, §3, §4

Citrobacter diversus = assay: MIC against Gram-negative bacteria: Citrobacter diversus; conditions: 5×10^5 CFU/mL; for MIC against C. diversus / MIC C. diversus: 96-well plate, 37° C., 10 h
Method: as §1, §2, §3, §4

Aeromonas hydrophila = assay: MIC against Gram-negative bacteria: Aeromonas hydrophila; conditions: 5×10^5 CFU/mL; for MIC against A. hydrophila / MIC A. hydrophila: 96-well plate, 37° C., 10 h
Method: as §1, §2, §3, §4

Serratia marcescens = assay: MIC against Gram-negative bacteria: Serratia marcescens; conditions: 5×10^5 CFU/mL; for MIC against S. marcescens / MIC S. marcescens: 96-well plate, 37° C., 10 h
Method: as §1, §2, §3, §4

Proteus mirabilis = assay: MIC against Gram-negative bacteria: Proteus mirabilis; conditions: 5×10^5 CFU/mL; for MIC against P. mirabilis / MIC P. mirabilis: 96-well plate, 37° C., 10 h
Method: as §1, §2, §3, §4

Moraxella catarrhalis = assay: MIC against Gram-negative bacteria: Moraxella catarrhalis; conditions: 5×10^5 CFU/mL; for MIC against M. catarrhalis / MIC M. catarrhalis: 96-well plate, 37° C., 10 h
Method: as §1, §2, §3, §4

[1] = E. coli BL21, 10 h cultivation at 37° C.
[2] = P. vulgaris, 10 h cultivation at 37° C.
[3] = E. cloacae, 10 h cultivation at 37° C.
[4] = P. aeruginosa, 10 h cultivation at 37° C.
[5] = K. pneumonia, 10 h cultivation at 37° C.
[6] = C. diversus, 10 h cultivation at 37° C.
[7] = A. hydrophila, 10 h cultivation at 37° C.
[8] = S. marcescens, 10 h cultivation at 37° C.
[9] = P. mirabilis, 10 h cultivation at 37° C.
[10] = M. catarrhalis, 10 h cultivation at 37° C.

Substance | MIC (μg/mL) E. coli BL21 (E. coli BL21; [1]) [µg/mL] | MIC (μg/mL) P. vulgaris (Proteus vulgaris; [2]) [µg/mL] | MIC (μg/mL) E. cloacae (Enterobacter cloacae; [3]) [µg/mL] | MIC (E. coli DH5α) [µg/mL] | MIC (μg/mL) P. aeruginosa (Pseudomonas aeruginosa; [4]) [µg/mL] | MIC (μg/mL) K. pneumonia (Klebsiella pneumonia; [5]) [µg/mL] | MIC (μg/mL) C. diversus (Citrobacter diversus; [6]) [µg/mL] | MIC (μg/mL) A. hydrophila (Aeromonas hydrophila; [7]) [µg/mL] | MIC (μg/mL) S. marcescens (Serratia marcescens; [8]) [µg/mL] | MIC (μg/mL) P. mirabilis (Proteus mirabilis; [9]) [µg/mL] | MIC (μg/mL) M. catarrhalis (Moraxella catarrhalis; [10]) [µg/mL] | MIC E. coli BL21 (E. coli BL21) [µg/mL] | MIC P. vulgaris (Proteus vulgaris) [µg/mL] | MIC E. cloacae (Enterobacter cloacae) [µg/mL] | MIC P. aeruginosa (Pseudomonas aeruginosa) [µg/mL] | MIC K. pneumonia (Klebsiella pneumonia) [µg/mL] | MIC C. diversus (Citrobacter diversus) [µg/mL] | MIC A. hydrophila (Aeromonas hydrophila) [µg/mL] | MIC S. marcescens (Serratia marcescens) [µg/mL] | MIC P. mirabilis (Proteus mirabilis) [µg/mL] | also measured
PRT150 (NINECLSNPCLNGGTCVDGVDSFSCECTRLWTGALCQ; listed as Homo sapiens) | 12.5 | 25 | 12.5 | 25 | 25 | 25 | 25 | 50 | 50 | 25 | 12.5 |  |  |  |  |  |  |  |  |  | 
PRT193 (GVHECAMQCHGRGVCNNRKNCHCEAHWAPPFCD; listed as Homo sapiens) | 100 | 12.5 | 12.5 | 50 | 50 | 12.5 | 25 | 12.5 | 25 | 25 | 12.5 |  |  |  |  |  |  |  |  |  | 
PRT208 (CDVQKKCHGHGVCNSNKNCHCENGWAPPNCETKGYGGSVDSGPTYNEMNTALRDG; listed as Homo sapiens) | 50 | 12.5 | 25 | 25 | 25 | 12.5 | 25 | 12.5 | 25 | 25 | 12.5 |  |  |  |  |  |  |  |  |  | 
PRT228 (DIDECSQSPQPCGPNSSCKNLSGRYKCSCLDGFSSPTGNDWVPGKPGNFSCT; listed as Homo sapiens) | 12.5 | 12.5 | 25 | 25 | 25 | 50 | 25 | 12.5 | 25 | 25 | 50 |  |  |  |  |  |  |  |  |  | 
PRT231 (DIDECTEMCPINSTCTNTPGSYFCTCHPGFAPSNGQLNFTDQGVECR; listed as Homo sapiens) | 50 | 25 | 12.5 | 12.5 | 12.5 | 50 | 12.5 | 25 | 12.5 | 12.5 | 25 |  |  |  |  |  |  |  |  |  | 
PRT303 (DMDECKEPDVCKHGQCINTDGSYRCECPFGYILAGNECV; listed as Homo sapiens) |  |  |  | 50 |  |  |  |  |  |  |  |  |  |  |  |  |  |  |  |  | MIC (E. coli BL21; [1]): 25 µg/mL; MIC (Proteus vulgaris; [2]): 100 µg/mL; MIC (Enterobacter cloacae; [3]): 50 µg/mL; MIC (Pseudomonas aeruginosa; [4]): 12.5 µg/mL; MIC (Klebsiella pneumonia; [5]): 25 µg/mL; MIC (Citrobacter diversus; [6]): 50 µg/mL; MIC (Aeromonas hydrophila; [7]): 12.5 µg/mL; MIC (Serratia marcescens; [8]): 50 µg/mL; MIC (Proteus mirabilis; [9]): 50 µg/mL; MIC (Moraxella catarrhalis; [10]): 12.5 µg/mL
PRT511 (CQCNGHSSLCDPETSICQNCQHHTAGDFCERCALGYYGIVKGLPNDCQQ; listed as Homo sapiens) |  |  |  | 50 |  |  |  |  |  |  |  |  |  |  |  |  |  |  |  |  | MIC against E. coli BL21 (E. coli BL21): 12.5 µg/mL; MIC against P. vulgaris (Proteus vulgaris): 12.5 µg/mL; MIC against E. cloacae (Enterobacter cloacae): 50 µg/mL; MIC against P. aeruginosa (Pseudomonas aeruginosa): 50 µg/mL; MIC against K. pneumonia (Klebsiella pneumonia): 12.5 µg/mL; MIC against C. diversus (Citrobacter diversus): 25 µg/mL; MIC against A. hydrophila (Aeromonas hydrophila): 12.5 µg/mL; MIC against S. marcescens (Serratia marcescens): 25 µg/mL; MIC against P. mirabilis (Proteus mirabilis): 25 µg/mL; MIC against M. catarrhalis (Moraxella catarrhalis): 50 µg/mL
PRT526 (CNCNGHSNQCQDGSGICVNCQHNTAGEHCERCQEGYYGNAVHGSCRA; listed as Homo sapiens) |  |  |  | 50 |  |  |  |  |  |  |  |  |  |  |  |  |  |  |  |  | MIC against E. coli BL21 (E. coli BL21): 25 µg/mL; MIC against P. vulgaris (Proteus vulgaris): 50 µg/mL; MIC against E. cloacae (Enterobacter cloacae): 50 µg/mL; MIC against P. aeruginosa (Pseudomonas aeruginosa): 12.5 µg/mL; MIC against K. pneumonia (Klebsiella pneumonia): 25 µg/mL; MIC against C. diversus (Citrobacter diversus): 12.5 µg/mL; MIC against A. hydrophila (Aeromonas hydrophila): 25 µg/mL; MIC against S. marcescens (Serratia marcescens): 12.5 µg/mL; MIC against P. mirabilis (Proteus mirabilis): 12.5 µg/mL; MIC against M. catarrhalis (Moraxella catarrhalis): 50 µg/mL
PRT550 (CDCTPCGTEACDPHSGHCLCKAGVTGRRCDRCQEGHFGFDGCGGCRP; listed as Homo sapiens) |  |  |  | 25 |  |  |  |  |  |  |  |  |  |  |  |  |  |  |  |  | MIC against E. coli BL21 (E. coli BL21): 12.5 µg/mL; MIC against P. vulgaris (Proteus vulgaris): 12.5 µg/mL; MIC against E. cloacae (Enterobacter cloacae): 25 µg/mL; MIC against P. aeruginosa (Pseudomonas aeruginosa): 25 µg/mL; MIC against K. pneumonia (Klebsiella pneumonia): 12.5 µg/mL; MIC against C. diversus (Citrobacter diversus): 25 µg/mL; MIC against A. hydrophila (Aeromonas hydrophila): 12.5 µg/mL; MIC against S. marcescens (Serratia marcescens): 25 µg/mL; MIC against P. mirabilis (Proteus mirabilis): 25 µg/mL; MIC against M. catarrhalis (Moraxella catarrhalis): 12.5 µg/mL
PRT611 (CACNGHSETCDPETGVCNCRDNTAGPHCEKCSDGYYGDSTAGTSSDCQP; listed as Homo sapiens) |  |  |  | 12.5 |  |  |  |  |  |  |  | 25 | 25 | 12.5 | 50 | 25 | 50 | 25 | 50 | 12.5 | MIC M. catarrhalis (Moraxella catarrhalis): 25 µg/mL
PRT623 (CKCNGHASECGPDVAGQLACRCQHNTTGTDCERCLPFFQDRPWARGTAEAAHECLP; listed as Homo sapiens) |  |  |  | 12.5 |  |  |  |  |  |  |  | 12.5 | 25 | 12.5 | 12.5 | 12.5 | 12.5 | 12.5 | 50 | 12.5 | MIC M. catarrhalis (Moraxella catarrhalis): 50 µg/mL
PRT656 (DIDECEDYGDPVCGTWKCENSPGSYRCVLGCQPGFHMAPNGDCI; listed as Homo sapiens) |  |  |  | 50 |  |  |  |  |  |  |  | 12.5 | 12.5 | 50 | 50 | 12.5 | 12.5 | 12.5 | 12.5 | 25 | MIC M. catarrhalis (Moraxella catarrhalis): 12.5 µg/mL
PRT666 (DDNECLRDPCKGKGRCINRVGSYSCFCYPGYTLATSGATQECQ; listed as Homo sapiens) |  |  |  | 12.5 |  |  |  |  |  |  |  | 25 | 25 | 12.5 | 50 | 25 | 50 | 25 | 25 | 12.5 | MIC M. catarrhalis (Moraxella catarrhalis): 25 µg/mL
